Reference: PubChem BioAssay AID1346428 (National Center for Advancing Translational Sciences (NCATS), 2018)
Several values for one entry are separate records, joined by “and”; a condition that tells them apart may be missing. Equal entries are not always repeated. Screen size: about 48,000 compounds; about 1,200 (2.5%) were called active. Not shown: some 2% with an inconclusive outcome.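 How the source made its calls: active means activation of at least 60% and not above a set upper limit (about 1 call in 100 departs from these limits); inconclusive means activation of 40% to 60%, or above that upper limit; inactive means activation under 40%.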 Some of the results follow.

target: Probable G-protein coupled receptor 32 (Homo sapiens) (UniProt O75388); experiment: qHTS for Agonists of Human Resolvin D1 Receptor DRV1; conditions: CHO-K1 GPR32 beta-arrestin PathHunter luminescence, 90 min; at 76.9 µM; stronger effect = higher value; zero percent set by DMSO-only wells
Sequence of UniProt O75388 (O75388 whole entry, looked up): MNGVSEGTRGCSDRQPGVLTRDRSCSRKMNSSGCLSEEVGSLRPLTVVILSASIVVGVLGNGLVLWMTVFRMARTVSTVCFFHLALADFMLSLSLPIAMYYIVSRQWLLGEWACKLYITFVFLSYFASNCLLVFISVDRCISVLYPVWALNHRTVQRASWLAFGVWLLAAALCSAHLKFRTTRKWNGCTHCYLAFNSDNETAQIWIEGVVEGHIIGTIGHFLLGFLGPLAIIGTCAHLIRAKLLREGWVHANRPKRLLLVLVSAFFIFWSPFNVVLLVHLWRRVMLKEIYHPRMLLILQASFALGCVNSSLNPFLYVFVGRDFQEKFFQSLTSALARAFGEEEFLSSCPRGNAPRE
Text: Endogenous resolution of inflammation is known to be transduced through various GPCRs and their natural mediators of lipid nature. Resolvin D1 (RvD1) is one of the active players in resolution of acute inflammation through regulation of anti-inflammatory pathways; it is known to enhance phagocytosis of human macrophages, limits neutrophils infiltration, etc. […] The search for GPR32-activating small molecules with anti-inflammatory effects similar to its natural omega-3 derivative ligand in order to use them as research tools for further studies of inflammation and its resolution was the goal of this screening project. For primary screening assay, we used CHO-K1 GPR32 beta-arrestin cell line (DiscoveRx, #93-0321C2A) and the PathHunter(R) beta-Arrestin Assay (DiscoveRx) which measures recruitment of beta-arrestin to the GPR32 and generates chemiluminescent signal. These engineered cells stably transfected with GPR32 co-express GPR32-fused small 42-amino acid fragment of beta-Gal called ProLinktrade mark, and […] -tagged beta-Arrestin fusion protein. When GPR32 is activated by a ligand, it stimulates binding of beta -Arrestin to ProLink-tagged GPR32, and two parts of beta-Gal complement forming a functional enzyme. Upon substrate (PathHunter(R) Detection reagent) addition, beta-Gal hydrolyzes it and generates a chemiluminescent signal.
The cells were thawed and plated in thawing media containing F-12 HAM (Invitrogen, #11765-054), 10% FBS (Invitrogen, #10082), 1x Glutamine, and 1x Pen/Strep onto the 175-mm flask for 24 hours. Then, thawing media was replaced with Growth media which contains 800microg/mL Geneticin (Invitrogen, #10131) and 300microg/mL Hygromycin B (Invitrogen, #10687) in addition to described above. For the assay, the cells were harvested at ~80% confluent stage with Cell Dissociation buffer (Gibco, #13151), and seeded at 2,500 cells/ 3microL/well in assay media (PathHunter(R) Cell Plating Reagent, DiscoverX, #93-0563R1B) using MultiDrop Combi dispenser (Thermo Scientific, Logan, UT) onto white solid bottom tissue culture-treated 1536-well plates (Greiner # 789173-F) and allowed to attach overnight at 37 degrees C, 95% humidity, 5% CO2, . Next, 23nL/well of compound solutions in DMSO were added with a Pin Tool (Kalypsis, San Diego, CA) to the assay plates. As the basal control (EC0), 23 nL/well of DMSO was used on each plate. The cells were incubated in the presence of compounds or DMSO for 90 minutes at 37 degrees C, 5% CO2. Subsequently, 1.5microL/well of PathHunter(R) Detection Reagent prepared per the manufacturer's instructions was added to the assay plates with BioRAPTR FRDtrade mark dispenser (Beckman Coulter, San Francisco, CA) and incubated for 1 hour at ambient temperature prior to the measurement of the luminescent signal on ViewLux(R) uHTS Microplate Imager (Perkin Elmer, Waltham, MA).

activation, active:
CCCCCCC[N+](CC)(CC)CCCCc1ccc(Cl)cc1 86.6%

activation, inactive:
CNC(=O)C1CCC(Cn2c(=O)[nH]c3ccsc3c2=O)CC1 (stereo not given) 1.08%, CCOC(=O)CNC(=O)N1CCc2cc(S(=O)(=O)N3CCC(C)CC3)ccc21 -7.73%, CC(C)(C)OC(=O)N1CCC(c2c(C(=O)N3CCN(c4ncccn4)CC3)cnn2-c2ccccc2)CC1 -7.07%, Cc1ccccc1-n1c(/C=C/c2c(C)n(C)c3ccccc23)nc2ccccc2c1=O -6.53%, Cc1cccc(OC(=O)c2cc(-c3ccc4c(c3)OCCO4)on2)c1 -0.332%, CSc1ccc(CNc2ncc(-c3ccccc3)n2C)cc1 -52.2%, CCOC(=O)c1cccc(NC(=O)c2cc(CN3CCOCC3)on2)c1 -2.64%, CCOC(=O)c1ccc(NC(=O)COCc2cc(-c3ccc4c(c3)OCO4)on2)cc1 -5.37%, CCN(CC)S(=O)(=O)c1ccc(C(=O)Nc2nc3c(Cl)cc(Cl)cc3s2)cc1 -8.47%, Cc1ccccc1C(=O)NCc1nc2cccnc2n1Cc1ccccc1 -19.5%, COc1cccc(CNC(=O)c2nn(-c3ccccc3Cl)nc2CO)c1 -15.6%, CC(C(=O)Nc1cc(C(F)(F)F)ccc1Cl)n1nnc2sc3c(c2c1=O)CCCC3 (stereo not given) -2.52%, Cc1ccc2oc(-c3ccc(C)c(NC(=O)c4ccc(C(C)(C)C)cc4)c3)nc2c1 7.05%, CCOc1ccccc1C(=O)Oc1c(Sc2ccccc2)c(C)nn1C(C)(C)C -3.26%, Cc1ccc(-c2csc(=Nc3ccccc3)n2Cc2ccc3c(c2)OCO3)cc1C 13.8%, CCN1CCN(C(c2ccccc2)c2sc3nc(-c4ccco4)nn3c2O)CC1 (stereo not given) -6.93%, COc1ccc(S(=O)(=O)c2c(Nc3ccc(F)cc3)sc(C(=O)c3ccc4c(c3)OCO4)c2N)cc1 -12.1%, C[N+]1(CCCCC[N+]2(C)CCCC2)CCCC1 0.996%, COc1ccc(N2CCN(C(=O)c3ccc4c(c3)N(Cc3ccc(F)cc3)C(=O)c3ccccc3S4=O)CC2)cc1 (stereo not given) -11.2%, COc1ccccc1C(=O)n1nc(-c2ccco2)nc1NCc1ccc(Cl)cc1 -31.7%, COc1ccccc1NC(=O)c1c(NCc2ccc(C)o2)sc2c1CCC(C)C2 (stereo not given) -4.19%, COCCc1nn2c(=O)cc(COC(=O)COc3ccc(F)cc3)nc2s1 -1.8%, COc1ccc(-c2cn3c(n2)sc2cc(C(=O)NCCCN4CCCCCC4)ccc23)cc1 -13.4%, CCCOC(=O)c1c(NC(=O)C2c3ccccc3Oc3ccccc32)sc2c1CCC(C)C2 (stereo not given) 9.99%, Cc1ccccc1-c1nc2cc(NC(=O)c3cccc(OCCC(C)C)c3)ccc2o1 12%, CCC12CN3CC(C)(CN(C1)C3c1ccccc1C)C2=O (stereo not given) -3.78%, COc1ccc2c(c1)c1c(c(=O)n(-c3ccc(C)cc3)c(=O)n1CC(=O)N1CCCC1)n2C -30.5%, CCOc1ccc(-n2ccn3c(CC(C)CC(=O)O)nnc3c2=O)cc1 (stereo not given) 14.8%, COc1cc(NC(=O)c2ccc(-c3nc(COc4ccccc4)c(C)o3)cc2)cc(OC)c1 -17.4%, CCCCN(Cc1ccccc1)S(=O)(=O)c1cc(Br)cc2c1N(C(=O)C1CC1)CC2 -3.4%, CCOC(=O)N1CCC(NC(=O)c2ccc3c(c2)N(Cc2ccccc2)C(=O)c2ccccc2S3=O)CC1 (stereo not given) -7.99%, CC(=O)C1=C(c2ccc(Cl)c(Cl)c2)N(C(C)=O)n2c(nnc2C2CCCCC2)S1 -15.8%, O=C(CCc1nnc2n(Cc3ccccc3Cl)c(=O)c3ccccc3n12)Nc1ccc(F)cc1 -8.29%, CCCNC(=O)CCn1nc(-c2ccccc2)c2ccccc2c1=O -22.9%, O=C(CSc1nnc(CNC(=O)c2ccccc2F)n1-c1ccccc1)Nc1ccccc1F -8.61%, CCOc1ccc(OCC)c(NC(=O)c2cc(CN3CCOCC3)on2)c1 -6.43%, CCC(Cn1nnc2ccccc2c1=O)NC(=O)Nc1ccc(C)cc1 (stereo not given) -21%, Cc1ccc(S(=O)(=O)c2cnc(SC(C)C(=O)Nc3ccccc3)[nH]c2=O)cc1 (stereo not given) -13.9%, CCOC(=O)C1CCCN(C(=O)c2cccc(NC(=O)c3nsc4ccccc34)c2)C1 (stereo not given) -7.39%, Cc1ccc(NC(=O)CCNS(=O)(=O)c2ccc(Br)s2)cc1 32%, CNCCCC1c2ccccc2C=Cc2ccccc21 23.5% and -2.89%, O=C(Nc1ccccc1Cl)c1cc(S(=O)(=O)N2CCC3(CC2)OCCO3)ccc1F -10.5%, COc1cc(C2C(=O)N(C3CCCCCC3)CC(=O)N2CCC2=CCCCC2)ccc1OC(C)C (stereo not given) -12%, O=C(NCCS(=O)(=O)N1CCN(c2ccccc2F)CC1)C(c1ccccc1)c1ccccc1 -19.7%, CCn1cc2nc(SCc3ccccc3Cl)n(CCc3ccccc3)c(=O)c2n1 44.3%, CCOc1ccc(N(CC)S(=O)(=O)N2CCCC(C(=O)Nc3ccc(OC)c(OC)c3)C2)cc1 (stereo not given) -7.81%, Cc1ccc(-c2nc(NC(=O)CSc3ncnc4sc5c(c34)CCC(C)C5)ns2)cc1 (stereo not given) -5.58%, COc1ccc2c(c1)c(=O)c(S(=O)(=O)c1ccc(Cl)cc1)cn2C -9.38%, Cc1ccccc1CNC(=O)C1CCN(c2nnc(-n3c(C)ccc3C)s2)CC1 -24%, Cc1cccc(NC(=O)N2CCC(CN3CCC(C)CC3)CC2)c1C -0.0741%, CC(=O)Nc1c(C)nn(-c2ccccc2)c1N1CCC(C(=O)Nc2ccc(F)cc2Cl)CC1 -9.66%, Cc1ccc2c(c1)C(c1ccccc1)N(C(=O)c1ccccc1F)CC(=O)N2 (stereo not given) 11.6%, CCc1cccc(CC)c1NC(=O)C(CC)n1nc(C)n2c(cc3cc(C)ccc32)c1=O (stereo not given) 0.249%, CCCn1c(SCc2nc(-c3cc(OC)ccc3OC)no2)nnc1-c1ccc(Cl)cc1 -14.1%, CCOC(=O)c1cccc(NC(=O)c2cc3cc4ccc(C)cc4nc3o2)c1 13.2%, Cc1ccc(-n2ncc(C(=O)Nc3ccc4c(c3)OCCO4)c2C2CCN(C(=O)OC(C)(C)C)CC2)cc1 -18.8%, Cc1ccccc1-c1noc(-c2cc3ccccc3oc2=O)n1 -16.5%, COc1ccc(Br)cc1CNC(=O)CSc1cc(=O)n(C)c2ccccc12 -8.93%, CCN1CCN(c2csc3ccc(C)cc3c2=O)CC1 -32%, CC1CCN(S(=O)(=O)c2ccc3c(c2)oc(=O)n3CC(=O)NC(C)c2ccccc2)CC1 (stereo not given) 30.9%, CCCc1ccc(OC(C)C(=O)Nc2sc3c(c2C(=O)OC)CCCCC3)cc1 (stereo not given) 7.34%, Cc1ccc(-c2nc(CS(=O)(=O)CC(=O)N3CCN(c4cccc(C)c4C)CC3)c(C)o2)cc1 -2.49%, Cn1c(SCC(=O)N2CCCc3ccccc32)ncc(C(=O)Nc2ccc(F)cc2)c1=O -3.42%, CCOC(=O)c1cnc2ccc(OC)cc2c1NCCc1ccc(OC)c(OC)c1 -20.9%, CSc1nc(Nc2cccc(C)c2)c(C#N)c(-c2ccccc2)n1 3.61%, CNc1c(NC(=O)c2cc(OC)cc(OC)c2)c(=O)oc2ccccc12 9.28%, O=C(O)CC(O)C(=O)O (stereo not given) 23.4%, Cc1cccc(CNC(=O)c2cccc(NC(=O)N3CCSc4ncccc43)c2)c1 -1.03%, CCCCNC(=O)c1nn(-c2ccc(C)cc2)c(=O)c2c1c1ccccc1n2C 9.57%, Cc1ccc2[nH]c(=O)c3cc(C(=O)N(C)c4ccc(Br)cc4)sc3c2c1 -7.84%, Cc1nnc(NC(=O)CSc2nc3c([nH]c4ccccc43)c(=O)n2-c2ccc(Cl)cc2)s1 40.4%, Cc1cc(C)cc(NC(=O)c2cc(S(=O)(=O)NCCC3=CCCCC3)ccc2F)c1 -18%, Cc1ccc(NC(=O)c2cc(S(=O)(=O)N3CCCCC3)c[nH]2)cc1N(C)C 0.797%, CC(=O)Nc1cc(C(=O)NCc2ccccc2Cl)ccc1Sc1ccc(F)cc1 -13.8%, Cc1cccc(C(=O)Nc2ccc3oc(-c4cccc5c(Br)cccc45)nc3c2)c1 15.6%, COc1ccc(CCNCc2c(C(=O)O)c(C)n(Cc3c(F)cccc3Cl)c2C)cc1OC 16.9%, Cc1cc(OCC(=O)Nc2ccc(C(=O)OC3CCCCC3)cc2)cc(C)c1Cl -3.13%, COc1ccc2c(c1)CC(C(=O)NCc1ccc(F)cc1)CO2 (stereo not given) -7.5%, CCc1ccc(NC(=O)C2CCN(c3nc(-c4ccc(OC)cc4)no3)CC2)cc1 -7.22%, CCOc1ccc2nc(N3CCN(C(=O)c4ccc5c(c4)CCCC5)CC3)sc2c1 -2.68%, Cc1ccc(-c2cc(-c3ccc4c(c3)NC(=O)CO4)nc3c2COc2ccccc2-3)cc1 -22.7%, Cc1ccc2c(c1)C(=O)OC(C(=O)Nc1ncc(Cc3ccccc3Cl)s1)C2 (stereo not given) 1.79%, Cc1ccc(C(=O)Nc2c(C(=O)NC(C)(C)C)oc3ccccc23)cc1 -10.2%, CCOc1ccc2c(c1)c(=O)c(C(=O)c1ccccc1)cn2Cc1ccccc1 -1.12%
